Data from PMC4336329 (PLoS ONE, 2015).
Screen size: about 310,000 compounds; about 14,000 (4.5%) showed an effect of 50% or more. The effect is printed as a negative number. The list shows a part of the results.

Each compound was assayed against human ether-à-go-go-related gene (hERG) potassium channel (human, UniProt Q12809) (assay: primary screen, population patch clamp on CHO cells stably expressing hERG).
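Note: peak tail current of the secondary pulse compared with the same well before compound.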

Sequence of human ether-à-go-go-related gene (hERG) potassium channel (Q12809 whole entry, looked up): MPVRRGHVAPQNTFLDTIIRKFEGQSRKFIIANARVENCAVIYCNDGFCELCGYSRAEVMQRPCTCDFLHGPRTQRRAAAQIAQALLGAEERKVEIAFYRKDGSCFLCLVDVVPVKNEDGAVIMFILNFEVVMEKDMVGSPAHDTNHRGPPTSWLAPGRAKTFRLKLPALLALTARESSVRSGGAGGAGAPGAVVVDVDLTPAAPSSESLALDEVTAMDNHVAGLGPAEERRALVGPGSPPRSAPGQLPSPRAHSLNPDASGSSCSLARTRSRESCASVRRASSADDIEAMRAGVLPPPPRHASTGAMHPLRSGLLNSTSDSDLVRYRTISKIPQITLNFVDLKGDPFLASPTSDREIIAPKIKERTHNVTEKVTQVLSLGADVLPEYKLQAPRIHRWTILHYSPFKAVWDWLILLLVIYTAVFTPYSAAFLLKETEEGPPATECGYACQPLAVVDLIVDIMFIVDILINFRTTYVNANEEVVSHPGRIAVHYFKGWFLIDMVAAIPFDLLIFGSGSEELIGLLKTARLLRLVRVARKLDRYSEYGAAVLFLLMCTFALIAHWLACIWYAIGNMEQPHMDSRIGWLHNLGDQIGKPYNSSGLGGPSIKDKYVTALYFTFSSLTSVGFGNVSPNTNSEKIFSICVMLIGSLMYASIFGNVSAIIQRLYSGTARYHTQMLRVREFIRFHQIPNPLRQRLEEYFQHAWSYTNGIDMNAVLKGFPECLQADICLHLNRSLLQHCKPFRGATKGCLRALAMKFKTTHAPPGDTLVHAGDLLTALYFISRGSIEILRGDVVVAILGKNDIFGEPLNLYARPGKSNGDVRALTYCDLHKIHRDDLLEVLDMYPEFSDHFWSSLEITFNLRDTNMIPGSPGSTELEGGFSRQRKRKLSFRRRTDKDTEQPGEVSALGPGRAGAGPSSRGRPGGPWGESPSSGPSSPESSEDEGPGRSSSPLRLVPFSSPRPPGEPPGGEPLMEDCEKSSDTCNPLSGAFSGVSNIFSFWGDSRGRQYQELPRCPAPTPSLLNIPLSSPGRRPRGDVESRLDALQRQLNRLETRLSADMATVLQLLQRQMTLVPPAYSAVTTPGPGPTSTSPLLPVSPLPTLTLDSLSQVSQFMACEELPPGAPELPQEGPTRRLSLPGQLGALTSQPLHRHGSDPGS

Row | Structure (SMILES) | hERG current change (%, negative = inhibition) at 10uM [%]
1 | CC(C)[C@H](NC(=O)C1CC(=O)N(c2ccc3c(c2)OCO3)C1)C(=O)NC1CCCC1 (stereo partly shown) | 13.1
2 | COc1cc(C(=O)NC2=NCCS2)cc(OC)c1OC | 3.84
3 | COc1cc([N+](=O)[O-])ccc1NC(=O)NCCCN1CCCC1=O | 4.07
4 | C=CCNC(=O)C1CC(=O)N(c2ccc(OCC(=O)Nc3ccc(C)cc3)cc2)C1 (stereo not shown) | -9.59
5 | Cc1ccc(NC2=C(N3CCOCC3)C(=O)c3ccccc3C2=O)cc1 | -21.4
6 | Cc1c(NC(=O)C(C)OC(=O)CCC2CCCC2)c(=O)n(-c2ccccc2)n1C (stereo not shown) | -3.92
7 | COc1cc(N2C(=O)c3ccccc3C2=O)c(Cl)cc1C(=O)OCC(=O)N1CCOCC1 | -9.43
8 | Cc1cccc(C)c1NC(=O)CNC(=O)C1CC(=O)N(Cc2ccccc2)C1 (stereo not shown) | -3.54
9 | O=C1CC(NCc2cccs2)C(=O)N1c1ccc(Cl)cc1 (stereo not shown) | -10.3
10 | Cc1ccn2cc(-c3cccc(NS(C)(=O)=O)c3)nc2c1 | -26.2
11 | Cc1cc(=O)oc2cc(NC(=O)C(C)Oc3ccccc3)ccc12 (stereo not shown) | 5.16
12 | CCOc1ccccc1/C=N/NC(=O)c1cccc(S(=O)(=O)N2CCOCC2)c1 | 5.25
13 | CCc1cccc2c(=O)c(C(=O)NCCCOC)c[nH]c12 | 10.6
14 | Cc1cccc(C2N(c3nccs3)C(=O)C3CCCN32)c1 (stereo not shown) | 0.23
15 | O=c1oc(-c2ccc(F)cc2)nc2ccsc12 | 13.5
16 | COc1ccccc1N1CCN(CCCC(=O)c2ccc(F)cc2)CC1 | -71.7
17 | c1ccc2c(c1)CSc1ccccc1C2C1=NCCN1 (stereo not shown) | 5.85
18 | O=C(Oc1ccc2c(-c3ccccc3)cc(=O)oc2c1)c1cccs1 | 15.2
19 | CCN(CCn1cccn1)C(=O)CCc1nnc(C2CCCCC2)o1 | 7
20 | COc1cccc(C(=O)NNC2=CC(=O)CC(C)(C)C2)c1 | -6.27

Row | Structure (SMILES) | hERG current change (%, negative = inhibition) at 10uM [%]
21 | Cc1c(C(=O)OC2CCCCC2)sc2nc[nH]c(=O)c12 | 15.2
22 | N#Cc1ccc(OCC(O)CN2CCN(C(c3ccccc3)c3ccccc3)CC2)cc1 (stereo not shown) | -72.1
23 | Cc1ccccc1Cn1cc(S(=O)(=O)CC(=O)N2CCCCC2)c2ccccc21 | 7.27
24 | C(/C=C/c1ccccc1)=N/N1CCN(c2ccccc2)CC1 | -3.04
25 | O=C(NC1CC1)c1sc2cc(Cl)ccc2c1Cl | 2.56
26 | O=C(CN(C1CC1)S(=O)(=O)c1ccc(S(=O)(=O)N2CCCCCC2)cc1)Nc1ccccc1 | 14.8
27 | O=C(COc1ccccc1Cl)N1CCN(c2ccccn2)CC1 | -9.18
28 | CCCOc1c(OC)cc(Cl)cc1C1NC(=O)NC(C)=C1C(=O)NCc1ccccc1 (stereo not shown) | 5.87
29 | COc1ccc(N2CCN(C(CNC(=O)C(=O)NCc3cccnc3)c3ccco3)CC2)cc1 (stereo not shown) | -4.27
30 | COc1cc(OC)c(N(C)C(=O)c2cn(C)c(=O)c3cc(OC)c(OC)cc23)cc1Cl | -15.9
31 | O=C(COC(=O)c1ccccn1)Nc1ccccc1Cl | -14.7
32 | N#Cc1ccc(NC(=O)c2cccs2)nc1 | 19
33 | Cc1ccc(Nc2nc(=O)c3cccnc3s2)cc1 | -7.04
34 | Cc1cc(/C=C2\NC(=O)N(Cc3ccc(Cl)cc3)C2=O)c(C)n1C | 1.03
35 | CCOC(=O)c1nc2sc3c(c2c(=O)[nH]1)CCCC3 | 3.84
36 | O=C1c2ccccc2C(=O)N1Cc1nc2ccccc2c(=O)n1-c1cccnc1 | 4.77
37 | C=CCNC(=S)N/N=C1\CCS(=O)(=O)c2ccccc21 | -34.7
38 | Cc1ccc(OCC(=O)NC2CCCCCC2)cc1C | 19.5
39 | Cc1cccc(Cn2c(N3CCN(CCO)CC3)nc3c2c(=O)[nH]c(=O)n3C)c1 | -23.5
40 | CCOC(=O)N1CCC(NC(=O)c2cc(C(=O)NCC(OC)OC)ccc2CO)CC1 | 14.1

Row | Structure (SMILES) | hERG current change (%, negative = inhibition) at 10uM [%]
41 | CC(C)CCNC(=S)Nc1ccc(Br)cc1 | -2.37
42 | Cc1ccc(NC(=O)CN(C)C(=O)CSc2nnc(N)s2)cc1 | -0.69
43 | Cc1ccc(S(=O)(=O)Nc2ccc3c(c2)c2c(n3S(=O)(=O)c3ccc(C)cc3)CCCC2=O)cc1 | -24.9
44 | O=C(Nc1cccc(Cl)c1)c1ccccc1 | -8.19
45 | COC(=O)c1ccc(Cl)c(-c2ccc(/C=N/NC(=O)Nc3ccccc3)o2)c1 | 18.3
46 | CCN(CC)CCSc1nc(O)c(Cc2ccccc2)c(=O)n1-c1ccccc1.Cl | 15.8
47 | NC(=O)c1cccc2c3c([nH]c12)CCCC3 | -1.35
48 | CCC1(CC)Cc2ccccc2-c2nc(NN)[nH]c(=O)c21 | 13.7
49 | COc1ccc(-n2ncc3c(N4CCN(c5cccc(C)c5C)CC4)ncnc32)cc1 | 17.3
50 | C=CCN(Cc1cccc(OC)c1OC)S(=O)(=O)N(C)C | 0.212
51 | CS/C(=C(/C#N)S(=O)(=O)c1ccc(Cl)cc1)N1CCOCC1 | -1.37
52 | CCCC(=N)C1=C(O)CC(CC(C)SCC)CC1=O (stereo not shown) | -33.3
53 | CC(c1ccon1)N(C)Cc1cn[nH]c1-c1ccc(F)cc1F (stereo not shown) | -7.46
54 | Cc1ccc(CNC(=O)CN(C)S(=O)(=O)c2cccs2)cc1 | 0.372
55 | CCCOc1ccc(N2C(=O)CC(N(Cc3ccco3)C(=O)CCC(=O)O)C2=O)cc1 (stereo not shown) | 21
56 | O=C(c1cc(S(=O)(=O)N2CCOCC2)ccc1Cl)N1CCOCC1 | 6.45
57 | Cc1nn(C)c(Oc2ccccc2)c1CCNS(=O)(=O)c1ccccc1 | -2.05
58 | COc1ccc(CSc2nc3ccccc3c(=O)[nH]2)cc1F | 36.6
